In PMC12136788:
The list shows a part of the results.

T1: UNK ZnF1-6 (called full-length) (human, UniProt Q9C0B0 30-357)
T1 sequence: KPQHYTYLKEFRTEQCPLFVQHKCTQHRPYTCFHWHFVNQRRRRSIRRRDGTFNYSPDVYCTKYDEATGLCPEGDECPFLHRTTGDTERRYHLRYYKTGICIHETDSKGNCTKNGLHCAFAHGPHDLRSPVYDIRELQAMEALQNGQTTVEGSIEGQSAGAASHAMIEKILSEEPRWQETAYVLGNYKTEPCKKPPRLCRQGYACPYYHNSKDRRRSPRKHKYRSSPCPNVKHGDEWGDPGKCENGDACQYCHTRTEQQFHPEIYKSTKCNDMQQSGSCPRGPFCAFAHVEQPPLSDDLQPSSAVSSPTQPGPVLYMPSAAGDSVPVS

B1: chr12:46358264:46358384:-|3pUTR|ENSG00000134294|msi1|total|mutant (ssRNA)
RNA: GGGAGUUCUACAGUCCGACGAUCAAUGUGAUCCCGUGUAAUGGAAGACCUUUGAGAACCUGGGUGUAUUAACUUUGUGUAUACCGUGUAAAUAUCCCCACUGUACUGUCCGAGGCCAACAAUUCCCGUAUGGCUUGUUGGCAACAACAGAGGAUUGAGCAUCA
B2: ENSG00000134323:stop:overlap|stop_codon|ENSG00000134323|stop_codon|NA|stop_codon (ssRNA)
RNA: GGGAGUUCUACAGUCCGACGAUCAAAAAUUGCAGGCAAGACAGCAGCAGUUGCUAAAGAAAAUUGAACACGCUCGGACUUGCUAGACGCUUCUCAAAACUGGACAGUCACUGCCACUUUGCACAUUUUGAUUUUUUUUUUAAACAACAGAGGAUUGAGCAUCA
B3: chr4:189940876:189940977:+|5pUTR|ENSG00000109536|unk|total|mutant (ssRNA)
RNA: GGGAGUUCUACAGUCCGACGAUCAGUGGAACUCUGAGCCAUUCAGCGUUUGGGUGAAGACGGAGGCGGGUUCUACAGAGACGCCGGCUGUCAGGGAGUGUUUAUUUCGCGUCCGCUUCUGUUUCUCCGCGCCCCUGUGCUGCCCAACAGAGGAUUGAGCAUCA
B4: chr19:35555165:35555334:-|CDS|ENSG00000105675|control|control|control (ssRNA)
RNA: GGGAGUUCUACAGUCCGACGAUCGGCCGUCACGGGGGAUGGUGUGAAUGACUCCCCAGCUCUGAAGAAGGCAGACAUCGGAGUAGCCAUGGGCAUCGCUGGCUCAGAUGCUGCCAAAAAUGCAGCUGACAUGAUCCUGCUGGACAACAGAGGAUUGAGCAUCA
B5: chr4:102797111:102797208:-|3pUTR|ENSG00000109332|msi1_unk|total|mutant (ssRNA)
RNA: GGGAGUUCUACAGUCCGACGAUCUCUGAGAAGACUUAAGUUCUUCCAGCUUUGGACAAUAACUGCUUUCCGAAACUGUAAAGCCGUUACAAGAGAACAGUUGCCCAAGACUCAGAAUUUUUAAAAAAAAAAAUGGAGCAUGUGCAACAGAGGAUUGAGCAUCA
B6: chr11:119418629:119418730:-|3pUTR|ENSG00000154096|msi1|FALSE|unique (ssRNA)
RNA: GGGAGUUCUACAGUCCGACGAUCCCUCAGAGGCCUUGGGGCAUGACCCAGUGAAGAUGCAGGUUUGACCAGGAAAGCAGCGCUAGUGGAGGGUUGGAGAAGGAGGUAAAGGAUGAGGGUUCAUCAUCCCUCCCUGCCUAAGGACAACAGAGGAUUGAGCAUCA
B7: ENSG00000164574:stop:overlap|stop_codon|ENSG00000164574|stop_codon|NA|stop_codon (ssRNA)
RNA: GGGAGUUCUACAGUCCGACGAUCUCGACGACUUCAGUGAUCGAGAUCUGCCGACUGCAUCAACUCCCUCUCCCUUUGUGUGCUAGAGACCCUUCAGCAUACGCAGCUCUGGGAUGAUGCCAGGAUUCCAUUUGGAGACUUCUGCAACAGAGGAUUGAGCAUCA
B8: chr11:110579372:110581225:-|CDS|ENSG00000137727|control|control|control (ssRNA)
RNA: GGGAGUUCUACAGUCCGACGAUCUAGUCAGAGCUCUUCUGGUUCUCUGCCUUGGGAAAGAGCCUCAGCCAGCUCUUGGACUCUAGAGGAUGCGACCAGCCCAGACUCAGGGCCUACAGUGGUCUGCGACAUUGAGGACAGGUACAACAGAGGAUUGAGCAUCA
B9: chr9:34241424:34241533:+|CDS|ENSG00000165006|unk|FALSE|unique (ssRNA)
RNA: GGGAGUUCUACAGUCCGACGAUCAACCCCAUCCUCGCCAGCUUGCAGCACAACAGCAUCCUCACACCAACUCGGGUCAGCAGUAGUGCCACGAAACAGAAAGUUCUCAGCCCACCUCACAUAAAGGCGGAUUUCAAUCUUGCUCAACAGAGGAUUGAGCAUCA
B10: ENSG00000198589:be:win_2551|CDS|ENSG00000198589|bound_else_gene|NA|bound_elsewhere_windowed (ssRNA)
RNA: GGGAGUUCUACAGUCCGACGAUCAAUAACAGUAGAGAAAACAGGAGGAGCUUGCUACAAUGCUCUGUGUGGCAAGAAUGGAUGCUUUCUCUCUGCUAUUUUAAUCCUAAGAAUUCAGAUGAGCAAAAGAUAACAGAAAUGGUACAACAGAGGAUUGAGCAUCA
B11: chr14:70725707:70725808:-|3pUTR|ENSG00000006432|unk|FALSE|unique (ssRNA)
RNA: GGGAGUUCUACAGUCCGACGAUCGUCGAAUAUCAGCUAUUUCAUAUGGUUCACCCUAAUGUACCUGCCUCUCUCUUUGGCUUUAGGUCUGAGAAUGACUUGUCUUUGUCAAGGUAUACUAUUGUUAGAAACGCAUUACCAAAUCAACAGAGGAUUGAGCAUCA
B12: ENSG00000107863:be:win_1101|CDS|ENSG00000107863|bound_else_gene|NA|bound_elsewhere_windowed (ssRNA)
RNA: GGGAGUUCUACAGUCCGACGAUCGGCUCCCUCUGUAUCUGUUAAUCACUAUUCGCCAAAUUCCCAUCAGCACAUAGACUGGAAAAACUAUAAAACUUACAAAGAGUAUAUUGAUAACAGACGAUUGCACAUAGGUUGUCGGACCAACAGAGGAUUGAGCAUCA
B13: chr8:100287602:100287712:-|CDS|ENSG00000034677|unk|FALSE|unique (ssRNA)
RNA: GGGAGUUCUACAGUCCGACGAUCUGUGUGGAUUGCUUACGACAAUAUUUAAGGAUAGAAAUCUCUGAAAGCAGAGUUAAUAUUAGUUGCCCAGAAUGUACUGAACGGUUUAAUCCCCAUGAUAUUCGCUUGAUAUUAAGUGAUCAACAGAGGAUUGAGCAUCA
B14: chr10:101781316:101781432:-|3pUTR|ENSG00000107833|unk|total|mutant (ssRNA)
RNA: GGGAGUUCUACAGUCCGACGAUCCCCACCUGCCUGUGAGAAUUGGAGGUCCGUGCCUGAAGCUCAGAGCUACACAUUUUUAACCGUUUUUACAUUUUUGGAUAAAGGUUGAAAUAAAGUGGUGUGGAGUUUUUGCAGCUCUUGCAACAGAGGAUUGAGCAUCA
B15: ENSG00000165434:stop:overlap|stop_codon|ENSG00000165434|stop_codon|NA|stop_codon (ssRNA)
RNA: GGGAGUUCUACAGUCCGACGAUCAUGCUCUGAUAGAGAAUUUUCUUCAGCCUAGUAAGAAUGGACUGAUCUGGCGUUCUGUUUAGGGGUACACCAAUAUGUCAUGACACUGUGUGGGCAUAUGGAACAGAGCAACCGAGAACUCAACAGAGGAUUGAGCAUCA
B16: chr10:59791032:59791133:-|3pUTR|ENSG00000108091|msi1|total|mutant (ssRNA)
RNA: GGGAGUUCUACAGUCCGACGAUCUAAUCAUAAUACAGUUCUCAGAUGCAGGGAAGAAGUUUGGCAUUUAAUCAUUGAGGCUUCCGGUUUUUGAUGUGAUCAGACUGGGCCAUGUCAAACCCGGAAUUUUCACCAACAGUUCACCAACAGAGGAUUGAGCAUCA
B17: chr3:48693060:48693174:-|CDS|ENSG00000068745|unk|FALSE|unique (ssRNA)
RNA: GGGAGUUCUACAGUCCGACGAUCCCUUCCAGGUGUGGUAUCUGUGCGCUUUGAAGAAGAUGAAGACAGGAACUUGUGUCUAAUAGCAUAUCCAUUGAAAGGGGACCAUGGAAUUGUGGACAUUGUAGAUAAUUCAGACUGUGACAACAGAGGAUUGAGCAUCA
B18: ENSG00000146216:stop:overlap|stop_codon|ENSG00000146216|stop_codon|NA|stop_codon (ssRNA)
RNA: GGGAGUUCUACAGUCCGACGAUCUGCUCCGCAUCUCGCGGUCCCAGCUGCAGCAGGUGUGGGCCCGGUUCACCCACAAGACCUAGGCUGGGCCCCCCCCCUCCUGGAGGGGGCAGGUGGGGGGGGGUGGGGAGCAGGCAGAGGCAACAGAGGAUUGAGCAUCA
B19: chr9:35091239:35092767:-|three_prime_utr|ENSG00000165282|control|control|control (ssRNA)
RNA: GGGAGUUCUACAGUCCGACGAUCAGGCUUUCCAUUCUGCCCUCUACUCCUGACACCUGUGGCCUGGGGCCUGGUUGGGGCCAUAGCGUAUGCUGGACUCCUGGGAACUAUUGAGCUGAAGCUAGAUCUAGUGCUUCUAGGGGCCAACAGAGGAUUGAGCAUCA
B20: chr8:100258838:100258944:-|CDS|ENSG00000034677|unk|total|mutant (ssRNA)
RNA: GGGAGUUCUACAGUCCGACGAUCAGUGAAUUUGAGGCUCCAUCCCUCAGUGACAGUAUGCCUUCUGCCGCAGAUUCUCACUCCCGUCAUUUUUCUGAAUUCCGUUGUUCUGACCCCGAAAGCAUGAAAACUUCUUGCCGUCAUCAACAGAGGAUUGAGCAUCA
B21: ENSG00000136271:stop:overlap|stop_codon|ENSG00000136271|stop_codon|NA|stop_codon (ssRNA)
RNA: GGGAGUUCUACAGUCCGACGAUCCUGUGCUCAACUUUGAUCUUCCCCCAACCCCUGAGGCCUACAUCCAUCGAGCUGGCAGGUAGUAGUGUGACGGCCCAGGCAUCUGCAUGGACAGCACGCGCUAACAACCCAGGCAUAGUCCAACAGAGGAUUGAGCAUCA
B22: ENSG00000117298:stop:overlap|stop_codon|ENSG00000117298|stop_codon|NA|stop_codon (ssRNA)
RNA: GGGAGUUCUACAGUCCGACGAUCAGGAGACAGGAACCCGAGAAGUAGCUGAAGCAGAAGCCAGCCGCAGUCCCCUUGCCACAUAGAGGCGGGCUUCUCCCAGCCAUGGUGUCCCCUCUGCCUCCCCUCCCCCGACCCUCCUGCCAACAGAGGAUUGAGCAUCA

target: T1, UNK ZnF1-6 (called full-length); experiment: nsRBNS (natural sequence RNA bind-n-seq); RBNS binding buffer (assumed for nsRBNS): 25 mM Tris pH 7.5, 150 mM KCl, 3 mM MgCl2, 0.01% Triton X-100, 500 ug/ml BSA, 20 U/ml SUPERase-In, 4 C; UNK is unkempt and MSI1 is Musashi-1; names of the RNAs are library labels; protein concentration not given here; high values mean tight binding

Row | Binder | binding signal
1 | B1 | 0.377 enrichment R
2 | B2 | 0.401 enrichment R
3 | B3 | 0.866 enrichment R
4 | B4 | 0.735 enrichment R
5 | B5 | 0.275 enrichment R
6 | B6 | 0.86 enrichment R
7 | B7 | 0.708 enrichment R
8 | B8 | 0.616 enrichment R
9 | B9 | 0.809 enrichment R
10 | B10 | 0.473 enrichment R
11 | B11 | 1.31 enrichment R
12 | B12 | 0.69 enrichment R
13 | B13 | 0.889 enrichment R
14 | B14 | 0.456 enrichment R
15 | B15 | 0.595 enrichment R
16 | B16 | 0.617 enrichment R
17 | B17 | 0.967 enrichment R
18 | B18 | 0.441 enrichment R
19 | B19 | 1.23 enrichment R
20 | B20 | 0.49 enrichment R
21 | B21 | 0.398 enrichment R
22 | B22 | 1.39 enrichment R
